Measurements published in patent publication US20250361297A1, “ANTI- SIGLEC-15 BINDING MOLECULES AND METHODS OF USE” (ADAPTAM THERAPEUTICS, S.L., priority 2024, published 2025).

T1: human Siglec-15 (Homo sapiens, UniProt Q6ZMC9)
T1 construct: expressed in transfected cells
T1 sequence (Q6ZMC9 20-328): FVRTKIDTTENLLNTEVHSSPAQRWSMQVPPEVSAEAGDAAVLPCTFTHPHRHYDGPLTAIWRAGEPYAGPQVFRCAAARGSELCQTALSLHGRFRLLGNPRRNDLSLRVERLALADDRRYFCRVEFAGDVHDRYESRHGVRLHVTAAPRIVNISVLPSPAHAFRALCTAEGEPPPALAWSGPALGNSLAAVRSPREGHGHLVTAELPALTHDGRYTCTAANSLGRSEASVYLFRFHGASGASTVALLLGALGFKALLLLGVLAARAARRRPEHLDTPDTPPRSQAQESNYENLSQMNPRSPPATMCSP

T2: mouse Siglec-15 (Mus musculus, UniProt A7E1W8)
T2 construct: HEK293T cells were genetically engineered to express full-length mouse Siglec-15; expressed in transfected cells; host or cells: HEK293T
T2 sequence (A7E1W8 24-342): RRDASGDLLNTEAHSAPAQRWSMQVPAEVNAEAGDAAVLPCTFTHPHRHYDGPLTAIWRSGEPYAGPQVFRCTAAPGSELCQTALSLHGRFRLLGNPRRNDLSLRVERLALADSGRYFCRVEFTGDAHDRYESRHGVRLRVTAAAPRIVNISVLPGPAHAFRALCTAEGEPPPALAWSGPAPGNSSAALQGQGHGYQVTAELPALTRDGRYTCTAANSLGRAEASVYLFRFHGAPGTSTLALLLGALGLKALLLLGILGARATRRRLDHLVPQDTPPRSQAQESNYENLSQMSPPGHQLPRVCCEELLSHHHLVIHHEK

T3: THP-1 cells overexpressing human Siglec-15 (Homo sapiens, UniProt Q6ZMC9)
T3 construct: Human full-length Siglec-15 and CD19 genes were synthesized and cloned into the pLV-MSCV lentiviral vector; His; expressed in transfected cells; host or cells: THP-1 (lentiviral overexpression, 'THP-1 S15 OE')
T3 sequence (Q6ZMC9 20-328): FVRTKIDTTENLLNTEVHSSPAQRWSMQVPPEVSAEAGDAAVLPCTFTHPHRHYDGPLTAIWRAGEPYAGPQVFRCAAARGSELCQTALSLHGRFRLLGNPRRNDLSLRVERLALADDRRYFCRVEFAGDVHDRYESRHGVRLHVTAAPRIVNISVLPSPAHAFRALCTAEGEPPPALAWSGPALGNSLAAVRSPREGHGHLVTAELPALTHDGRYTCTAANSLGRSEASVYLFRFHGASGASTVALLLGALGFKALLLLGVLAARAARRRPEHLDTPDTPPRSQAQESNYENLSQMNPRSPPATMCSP


How the values were obtained:
[1] = molecular target: T1, human Siglec-15; assay: Titration of full-length IgG1 antibodies on human Siglec-15 (ELISA / flow cytometry on MOLM-13 Siglec-15 cells); type: binding; settings: phage display clones; Siglec-15 expressing cells
[2] = molecular target: T1, human Siglec-15; assay: as above; type: binding; settings: full-length human IgG1, titrated from 10 μg/ml
Description: The binding efficacy of the converted full-length IgG1 anti-Siglec-15 antibodies was then evaluated using both ELISA and flow cytometry. By immobilizing the antigen and titrating the antibodies starting at a concentration of 10 μg/ml, binding kinetics were determined via ELISA, using an anti-human IgG Fab-specific secondary antibody for detection. Palivizumab served as the negative control in these assays (FIG. 8A). Complementary to the ELISA, flow cytometry assays provided insight into the binding behavior of the antibodies on the cell surface. Here, titration of the antibodies began at the same concentration of 10 μg/ml, using MOLM-13 human Siglec-15 and MOLM-13 wild-type cells as a negative control, with detection performed using an anti-human Fc secondary antibody (FIG. 8B). Clone ZLA-1243-A01 is exemplified in an ELISA binding curve (FIG. 14A) and in a MOLM-13 flow cytometry analysis (FIG. 14B). From these assays, EC50 values were calculated, offering a quantitative measure of the antibodies' affinity towards Siglec-15, and leading to the selection of 7 unique hits (Table 10).
For the ELISA, antigens were immobilized on high-binding plates, and the full-length IgG1 anti-Siglec-15 antibodies were titrated beginning at a concentration of 10 μg/ml. After washing, an anti-human IgG Fab-specific HRP-conjugated secondary antibody was applied for detection. Palivizumab was included as the negative control. Optical densities were measured to generate binding curves from which EC50 values were derived. […] Flow cytometric analysis was conducted, and fluorescence intensity was used to calculate EC50 values, providing a quantitative assessment of the antibodies' cell surface binding efficacy. […] Antibodies were titrated starting at a concentration of 10 μg/ml and detected with an anti-human Fc-specific secondary antibody to detect bound primary antibodies. The half-maximal effective concentration (EC50) was calculated for each antibody to determine its binding affinity to mouse Siglec-15. Results were analyzed and ranked based on the EC50 values.

[3] = molecular target: T2, mouse Siglec-15; assay: Titration on HEK293T cells expressing mouse Siglec-15 (flow cytometry); type: binding; settings: titrated from 10 μg/ml
Description: Cross-species reactivity and domain-specific binding of the full-length anti-Siglec-15 antibody candidates were evaluated. The antibodies were titrated against HEK293T cells expressing mouse Siglec-15 or HEK293T cells expressing a truncated human Siglec-15 consisting solely of domain 2 (FIG. 9). […] However, the binding to mouse Siglec-15 was evident for all tested antibodies, with EC50 values calculated to rank the affinity of the antibodies.
For the ELISA, antigens were immobilized on high-binding plates, and the full-length IgG1 anti-Siglec-15 antibodies were titrated beginning at a concentration of 10 μg/ml. After washing, an anti-human IgG Fab-specific HRP-conjugated secondary antibody was applied for detection. Palivizumab was included as the negative control. Optical densities were measured to generate binding curves from which EC50 values were derived. In the flow cytometry assay, MOLM-13 cells expressing human Siglec-15 and MOLM-13 wild-type cells (negative control) were incubated with titrated antibodies starting at 10 μg/ml. After incubation, cells were washed and incubated with an anti-human Fc-specific secondary antibody conjugated with a fluorescent marker. Flow cytometric analysis was conducted, and fluorescence intensity was used to calculate EC50 values, providing a quantitative assessment of the antibodies' cell surface binding efficacy. HEK293T cells were genetically engineered to express full-length mouse Siglec-15 and a truncated version of human Siglec-15 encompassing only domain 2. Antibodies were titrated starting at a concentration of 10 μg/ml and detected with an anti-human Fc-specific secondary antibody to detect bound primary antibodies. The half-maximal effective concentration (EC50) was calculated for each antibody to determine its binding affinity to mouse Siglec-15. Results were analyzed and ranked based on the EC50 values.

[4] = molecular target: T3, THP-1 cells overexpressing human Siglec-15; assay: Binding of anti-Siglec-15 ADCs to THP-1 S15+ cells (flow cytometry); settings: relative to Trastuzumab-based ADC negative control
Description: Binding of anti-Siglec-15 ADCs to THP-1 S15+ cells: 50,000 cells/well of THP-1 S15 OE cells were added to a round bottom 96 well plate, centrifuged at 450×G for 5 minutes and the supernatant discarded. Human anti-siglec-15 IgG ADCs were prepared (starting at 198 nM, 3-fold serial dilution in staining buffer) and the cells were resuspended in 100 μl of ADC. Cells were incubated for 40 minutes on ice and 100 μl of staining buffer were added to each well, followed by centrifugation at 450×G for 5 minutes and supernatants were discarded. The secondary antibody was prepared (anti-human IgG-PE at 1:500 dilution) and added 100 μl to each well. Cells were incubated for 40 minutes on ice and 100 μl of staining buffer were added to each well followed by centrifugation at 450× G for 5 minutes to then discard the supernatant. Cells were resuspended in 150 μl of staining buffer and acquired in a flow cytometer.

Row | Molecule | cell binding in validation screenings via flow cytometry [1] | EC50 (ng/mL) hS15 [2] | EC50 (ng/mL) mS15 [3] | binding capacity to THP-1 cells overexpressing human Siglec-15 [4]
1 | ZLA-1214-D08: fully human anti-Siglec-15 IgG1, silenced Fc, phage display; VH SEQ ID NO: 42, VL SEQ ID NO: 43 (antibody, V domains shown, IgG1 silenced Fc; ZLA-1214-D08 VH; ZLA-1214-D08 VL) VH: EVQLVQSGAEVKKPGASVKVSCKASGYTFTGYYMHWVRQAPGQGLEWMGRINPNSGGTNYAQKFQGRVTMTRDTSTSTAYMELSRLRSDDTAVYYCARVINDAFDMWGQGTMVTVSS VL: [sequence of about 100 residues not given]FGQGTKVDIK | confirmed as cell binders | 105.6 ng/mL | 102.9 ng/mL | 
2 | ZLA-1214-B07: fully human anti-Siglec-15 IgG1, silenced Fc, phage display; VH SEQ ID NO: 50, VL SEQ ID NO: 51 (antibody, V domains shown, IgG1 silenced Fc; ZLA-1214-B07 VH; ZLA-1214-B07 VL) VH: QVQLVQSGAEVKKPGSSVKVSCKASGGTFSSYAISWVRQAPGQGLEWMGGIIPIFGTANYAQKFQGRVTITADESTSTAYMELSSLRSEDTAVYYCARDGGRDGYNPKKILEFDYWGQGTLVTVSS VL: [sequence of about 100 residues not given]FGPGTKVDIK | confirmed as cell binders | 132.6 ng/mL | 101.8 ng/mL | 
3 | ZLA-1243-A01-MMAE (conjugate) VH: [sequence of about 100 residues not given]DNEWTPGSFFDYWGQGTLVTVSS VL: QSALTQPASVSGSPGQSITISCTGTSSDVGGYNYVSWYQQHPGKAPKLMIYDVSNRPSGVSNRFSGSKSGNTASLTISGLQAEDEADYYCSSYTSSSTRVFGGGTKVTVL |  |  |  | increased binding capacity
